{"source": "PubChem BioAssay AID504339", "about": "(National Center for Advancing Translational Sciences (NCATS), 2011)", "note": "The campaign covered roughly 390,000 compounds. About 17,000 (4.4%) were called active. The inconclusive results got no clear call from the source; some entries with a clear call stand among them for comparison. The call rests on the fitted dose curve; in most records, active means well fitted inhibition curve with a large enough effect; inconclusive means small, poorly fitted or top-dose-only effect; inactive means no such curve, though single readings can be large or run the other way. Potencies beside an inconclusive call are fits to weak or partial responses and may not hold up. On the % scale 0 is the no-effect control and ±100 the full control effect; potency means the concentration at half of the fitted maximal effect; tags describe the fitted curve by direction and shape."}
{"target": "Lysine-specific demethylase 4A (Homo sapiens) (UniProt O75164)", "sequence (O75164 whole entry, looked up, the tested form may be a part)": "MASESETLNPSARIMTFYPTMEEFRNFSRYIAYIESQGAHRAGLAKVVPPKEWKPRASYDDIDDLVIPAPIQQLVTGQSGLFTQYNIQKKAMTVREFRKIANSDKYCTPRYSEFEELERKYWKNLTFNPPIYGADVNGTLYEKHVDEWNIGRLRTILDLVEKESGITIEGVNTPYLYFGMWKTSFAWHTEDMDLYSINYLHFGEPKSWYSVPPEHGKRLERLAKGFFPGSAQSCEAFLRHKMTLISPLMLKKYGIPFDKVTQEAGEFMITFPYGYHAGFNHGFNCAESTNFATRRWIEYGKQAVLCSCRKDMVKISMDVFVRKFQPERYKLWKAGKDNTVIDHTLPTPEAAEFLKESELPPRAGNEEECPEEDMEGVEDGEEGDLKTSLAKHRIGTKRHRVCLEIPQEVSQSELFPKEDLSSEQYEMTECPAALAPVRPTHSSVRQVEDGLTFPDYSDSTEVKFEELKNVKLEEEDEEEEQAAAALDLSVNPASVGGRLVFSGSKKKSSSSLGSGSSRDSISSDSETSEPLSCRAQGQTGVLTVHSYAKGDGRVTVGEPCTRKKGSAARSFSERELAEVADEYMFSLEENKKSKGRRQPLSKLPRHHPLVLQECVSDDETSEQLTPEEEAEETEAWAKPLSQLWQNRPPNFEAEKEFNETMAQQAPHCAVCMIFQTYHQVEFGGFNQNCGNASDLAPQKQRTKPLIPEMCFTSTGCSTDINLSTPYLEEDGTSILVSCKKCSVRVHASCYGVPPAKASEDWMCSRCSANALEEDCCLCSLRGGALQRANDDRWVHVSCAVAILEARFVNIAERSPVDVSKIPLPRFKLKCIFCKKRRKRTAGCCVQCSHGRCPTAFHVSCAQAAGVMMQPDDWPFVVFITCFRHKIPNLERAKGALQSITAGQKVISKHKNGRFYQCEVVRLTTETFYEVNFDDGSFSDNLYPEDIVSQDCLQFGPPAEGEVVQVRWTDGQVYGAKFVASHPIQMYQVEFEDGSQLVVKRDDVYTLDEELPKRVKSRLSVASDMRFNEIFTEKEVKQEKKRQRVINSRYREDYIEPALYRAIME", "experiment": "qHTS Assay for Inhibitors of JMJD2A-Tudor Domain; further: nearly all actives have a fitted effect of over 50% in size", "conditions": "AlphaScreen JMJD2A-Tudor / H3K4me3 peptide binding; activity change, negative = inhibition: at 114 µM (top of the series)"}
{"smiles": "CCN1CCN(CCCNC(=O)c2ccc3c(c2)N(Cc2ccc(C)cc2)CCS3)CC1", "Potency": "inconclusive: 31.6 µM [inhibitor, partial curve, poor fit]"}
{"smiles": "COc1ccc(-c2cc(C(=O)Nc3ccc(S(=O)(=O)Nc4onc(C)c4C)cc3)c3ccccc3n2)cc1", "Potency": "inconclusive: 44.7 µM [inhibitor, partial curve]"}
{"smiles": "NS(=O)(=O)c1ccc(CNC(=O)CCSCCC(=O)NCc2ccc(S(N)(=O)=O)cc2)cc1", "Potency": "inconclusive: 79.4 µM [inhibitor, partial curve]"}
{"smiles": "Cc1nn2c(=O)cc(COC(=O)c3ccc(F)cc3)nc2s1", "Potency": "inactive"}
{"smiles": "Cc1c(Cl)cnc(NC(=O)COC(=O)c2cccc(S(=O)(=O)N3c4ccccc4CC3C)c2)c1Cl", "note": "(stereo not drawn)", "Potency": "inconclusive: 89.1 µM [inhibitor, single point]"}
{"smiles": "CCN(CC)c1cc2nonc2c2nonc12", "Potency": "inactive"}
{"smiles": "CC(=O)/C(C#N)=C1\\NC(=O)C(Cc2ccccc2C)S1", "note": "(stereo not drawn)", "Potency": "inconclusive: 25.1 µM [inhibitor, full curve, poor fit]"}
{"smiles": "O=C1CC(N2CCCc3ccccc32)C(=O)N1c1ccccc1", "note": "(stereo not drawn)", "Potency": "inactive"}
{"smiles": "COc1cc(C(=S)N2CCCC2)ccc1OC(=O)c1ccc(Cl)cc1[N+](=O)[O-]", "Potency": "inconclusive: 22.4 µM [inhibitor, full curve, poor fit]"}
{"smiles": "N#Cc1ccc[n+](CC(=O)c2ccc(NC(=O)c3ccccc3)cc2)c1", "Potency": "inactive"}
{"smiles": "Cn1nnnc1SCCCNCc1ccccc1OCc1ccccc1F", "Potency": "inactive"}
{"smiles": "O=C(C1=C(O)C(=O)N(c2nc3ccc(Cl)cc3s2)C1c1ccco1)c1ccco1", "note": "(stereo not drawn)", "Potency": "active: 12.6 µM"}
{"smiles": "Cc1ccc(-n2cc(-c3ccccc3)c3c(N4CCOCC4)ncnc32)cc1", "Potency": "inconclusive: 50.1 µM [inhibitor, partial curve]"}
{"smiles": "Cc1ccc(N(C(=O)c2cccc(C)c2)S(=O)(=O)c2ccc(Cl)cc2)cc1", "Potency": "inactive"}
{"smiles": "CCn1c(SCC(=O)c2ccc3c(c2)OCCO3)nnc1-c1ccco1", "Potency": "inconclusive: 89.1 µM [inhibitor, single point]"}
{"smiles": "Cc1cc(=O)[nH]c(-c2ccccc2OC(F)(F)F)n1", "Potency": "inactive"}
{"smiles": "COc1ccccc1N1C(=N)S/C(=C\\c2ccc(-c3ccccc3C(=O)O)o2)C1=O", "Potency": "inconclusive: 44.7 µM [inhibitor, full curve, poor fit]"}
{"smiles": "COc1ccccc1N=c1scc(-c2ccc3c(c2)NC(=O)CO3)n1CC1CCCO1", "note": "(stereo not drawn)", "Potency": "inconclusive: 44.7 µM [inhibitor, partial curve]"}
{"smiles": "CCc1n[nH]c(=S)n1/N=C/c1cc(Br)c(OC)cc1OC", "Potency": "inconclusive: 56.2 µM [inhibitor, single point]"}
{"smiles": "c1ccc(-c2ccccc2OCCCN2CCCCC2)cc1", "Potency": "active: 7.94 µM"}
{"smiles": "Cc1ccc(C(=O)OCC(=O)Nc2cc(F)ccc2F)cc1NC(=O)c1ccco1", "Potency": "inactive"}
{"smiles": "Cc1c(C(=O)Nc2ccc(Cl)cc2)c2ccccn2c1C(=O)c1ccccc1", "Potency": "inactive"}
{"smiles": "CCc1ccc(NC(=O)c2oc3c(c2C)-c2[nH]ncc2CC3)cc1", "Potency": "inactive"}
{"smiles": "COc1cc(OC)c2ccc(=O)oc2c1C(CC(=O)N1CCN(c2ccccc2)CC1)c1ccc2c(c1)OCO2", "note": "(stereo not drawn)", "Potency": "active: 39.8 µM"}
{"smiles": "COc1ccc(Nc2nc(-c3cccnc3)nc3ccccc23)cn1", "Potency": "active: 31.6 µM"}
{"smiles": "COc1cccc(Oc2ccc(OC)cc2C(=O)O)c1", "Potency": "active: 25.1 µM"}
{"smiles": "Cc1ccsc1CN(C)Cc1nc(C2CC2)no1", "Potency": "inactive"}
{"smiles": "Cc1nnc2c3ccccc3nc(N3CCN(c4cccc(Cl)c4)CC3)n12", "Potency": "inconclusive: 44.7 µM [inhibitor, full curve, poor fit]"}
{"smiles": "C#CCOCCOCCOCCNc1nc(N2CCN(C(=O)CCCCCCCCCCNC(=O)Cn3cc(CCCCCN)nn3)CC2)nc(N2CCN(C(=O)CCCCCCCCCCNC(=O)[C@@H]([C@H](C)O)n3cc(C)nn3)CC2)n1", "Potency": "active: 79.4 µM"}
{"smiles": "CCc1[nH]c(=S)c(C#N)c(-c2ccccc2)c1C(=O)OC", "Potency": "inconclusive: 79.4 µM [inhibitor, partial curve]"}
{"smiles": "Cc1c[nH]c2cccc(OCC(O)CNC(C)(C)C)c12", "note": "(stereo not drawn)", "Potency": "inconclusive: 50.1 µM [inhibitor, full curve, poor fit]"}
{"smiles": "Nc1ccc2c(c1)C(=O)c1ccccc1-2", "Potency": "inconclusive: 56.2 µM [inhibitor, partial curve]"}
{"smiles": "CCN1CCCCC(=N/O)/C(=N/O)CCCC1", "Potency": "inconclusive: 28.2 µM [inhibitor, single point]"}
{"smiles": "CCc1nnc(NC(=O)CSCc2cc(=O)n3nc(C)sc3n2)s1", "Potency": "active: 17.8 µM"}
{"smiles": "N=C1/C(=C/c2ccc(OCc3ccccc3F)cc2)C(=O)N=C2SC(CC(=O)N3CCOCC3)=NN12", "Potency": "inconclusive: 50.1 µM [inhibitor, partial curve]"}
{"smiles": "O=C(CCc1ccc(Oc2cc([N+](=O)[O-])cc([N+](=O)[O-])c2)cc1)N1CCCCCC1", "Potency": "active: 39.8 µM"}
{"smiles": "COC(=O)c1cc(OC)c(OC)cc1NC(=S)Nc1cccc(C(C)=O)c1", "Potency": "active: 22.4 µM"}
{"smiles": "Cc1cc2ccccc2n1-c1ccc(C(=O)N2CCC(C(=O)NCc3ccc(F)cc3)CC2)s1", "Potency": "inactive"}
{"smiles": "CC1CCCN(c2nc(N(C)c3ccccc3)nc(N)c2[N+](=O)[O-])C1", "note": "(stereo not drawn)", "Potency": "inconclusive: 39.8 µM [inhibitor, partial curve]"}
{"smiles": "Cc1onc(-c2ccccc2Cl)c1C(=O)Nc1nn[nH]n1", "Potency": "active: 56.2 µM"}
{"smiles": "Cc1c(C(=O)Nc2ccccc2N2CCN(C)CC2)oc2ccc(F)cc12", "Potency": "inconclusive: 35.5 µM [inhibitor, partial curve, poor fit]"}
{"smiles": "Cc1ccc(N/N=C(\\C#N)C(=N)N2CCCCC2)cc1", "Potency": "inconclusive: 14.1 µM [inhibitor, single point]"}
{"smiles": "NCCCC[C@@H]1NC(=O)c2cc([N+](=O)[O-])cc(F)c2NCCCC[C@@H](C(N)=O)NC(=O)CNC1=O", "Potency": "inactive"}
{"smiles": "CN1C(=O)/C(=C\\c2ccncc2)SC1=Nc1ccccc1", "Potency": "inconclusive: 79.4 µM [inhibitor, single point]"}
{"smiles": "CC(=O)Oc1cc(O)c2c(=O)c(OC(C)=O)c(-c3ccc(OC(C)=O)c(OC(C)=O)c3)oc2c1", "Potency": "inconclusive: 44.7 µM [inhibitor, partial curve]"}
{"smiles": "Cc1ccc(NC(=O)CSc2nnc(CNC(=O)c3ccco3)n2C)cc1", "Potency": "inactive"}
{"smiles": "Cc1cc(C(F)F)nn1CC(=O)NC1C(=O)N2C(C(=O)O)=C(CSc3nnnn3C)CSC12", "note": "(stereo not drawn)", "Potency": "inactive"}
{"smiles": "Cc1cc(C)c(S(=O)(=O)Nc2cccc(-c3cn4ccccc4n3)c2)c(C)c1", "Potency": "active: 5.01 µM"}
{"smiles": "Cc1ccc(C)c(CN2C(=O)c3ccccc3S(=O)c3ccc(C(=O)NCc4ccco4)cc32)c1", "note": "(stereo not drawn)", "Potency": "inactive"}
{"smiles": "COCCn1c(-c2ccc(Cl)cc2)cnc1SCC(=O)NCc1cccs1", "Potency": "inconclusive: 89.1 µM [inhibitor, single point]"}
{"smiles": "O=C(NC(=S)Nc1cccc(Cl)c1N1CCCCC1)c1cccs1", "Potency": "active: 56.2 µM"}
{"smiles": "Cc1ccc(NC(=O)Cn2nnc(C(=O)NCCc3ccccc3)c2N)c(C)c1", "Potency": "active: 11.2 µM"}
{"smiles": "COc1ccc(OCC(=O)Nc2nc(-c3ccc(Br)cc3)ns2)cc1", "Potency": "inactive"}
{"smiles": "COc1cccc(NC(=O)Nc2nc(-c3ccc(OC)c(OC)c3)cs2)c1", "Potency": "inconclusive: 39.8 µM [inhibitor, full curve]"}
{"smiles": "COc1ccccc1CN(Cc1ccco1)c1cnc(S(C)(=O)=O)nc1C(=O)Nc1ccccc1Cl", "Potency": "inconclusive: 2.51 µM [inhibitor, full curve]"}
{"smiles": "CSc1ccc(/C=C(\\C(=O)O)c2ccc(S(=O)(=O)N3CCCCC3)s2)cc1", "Potency": "inconclusive: 25.1 µM [inhibitor, full curve]"}
{"smiles": "C=CCSc1nnc(N2C(=O)C(O)=C(C(=O)c3ccco3)C2c2ccc(F)cc2)s1", "note": "(stereo not drawn)", "Potency": "inconclusive: 17.8 µM [inhibitor, full curve]"}
{"smiles": "[O-]/C(=C(\\C(=S)Nc1cccc2ccccc12)[n+]1ccccc1)c1ccc(Cl)s1", "Potency": "inconclusive: 44.7 µM [inhibitor, full curve]"}
{"smiles": "COc1ccc(/C=C2/SC(=S)N(CCCC(=O)Nc3ccc(O)cc3)C2=O)cc1", "Potency": "inconclusive: 20 µM [inhibitor, full curve]"}
{"smiles": "c1ccc(CSc2nc3ncncc3[nH]2)cc1", "activity change, negative = inhibition": "inactive: -13.2% [at 11.4 µM]"}
{"smiles": "Nc1cc(S(=O)(=O)N2CCOCC2)ccc1N1CCCCC1", "Potency": "inconclusive: 112 µM [inhibitor, partial curve, poor fit]"}
{"smiles": "COc1ccccc1NC(c1cccnc1)c1ccc2cccnc2c1O", "note": "(stereo not drawn)", "Potency": "active: 22.4 µM"}
{"smiles": "COc1ccc2ccccc2c1/C=N\\NC(=O)c1cccnc1", "Potency": "inactive"}
{"smiles": "CC(C)CCn1c(O)c(N=Nc2ccccn2)c2ccccc21", "Potency": "inactive"}
{"smiles": "CCCC1C(=O)N2C(N(C)C)=Nc3ccc(C)cc3N2C1=O", "note": "(stereo not drawn)", "Potency": "inconclusive: 79.4 µM [inhibitor, partial curve]"}
{"smiles": "O=C(CCC(=O)c1cccs1)OCc1nnc(-c2ccccc2)o1", "Potency": "active: 50.1 µM"}
{"smiles": "COc1cc(C2CC(=O)N3CN(Cc4ccccc4)CSC3=C2C#N)ccc1OCc1ccccc1", "note": "(stereo not drawn)", "Potency": "inconclusive: 39.8 µM [inhibitor, partial curve]"}
{"smiles": "Cc1ccc(OCC(=O)NNC(=S)NC(=O)C(C)(C)C)c(Br)c1", "Potency": "inconclusive: 63.1 µM [inhibitor, partial curve, poor fit]"}
{"smiles": "C=CCn1c(-c2sc3nc(C)cc(C)c3c2N)n[nH]c1=S", "Potency": "active: 39.8 µM"}
{"smiles": "CCCc1cc(=O)[nH]c(SCC(=O)N2N=C(c3ccc(Cl)cc3)CC2c2ccco2)n1", "note": "(stereo not drawn)", "Potency": "inactive"}
{"smiles": "Cc1cc(C)c2[nH]c(C(=O)Nc3ccc4c(c3)OCO4)cc2c1", "Potency": "active: 56.2 µM"}
{"smiles": "O=C(c1ccc([N+](=O)[O-])s1)N1CCN(c2ccccc2)CC1", "Potency": "inactive"}
{"smiles": "COc1ccc(NC(=O)Cn2c(=O)n(-c3ccc(CC(=O)NCc4ccco4)cc3)c(=O)c3ccccc32)cc1", "Potency": "inactive"}
